Publication PMC4336329 (PLoS ONE, 2015)
About 2,200 (0.71%) of roughly 310,000 compounds showed an effect of 50% or more. Effects have a minus sign here. This is one part of the list.

What follows are compounds tested against human ether-à-go-go-related gene (hERG) potassium channel (human, UniProt Q12809) (assay: primary screen, population patch clamp on CHO cells stably expressing hERG).
human ether-à-go-go-related gene (hERG) potassium channel, sequence (Q12809 whole entry, looked up): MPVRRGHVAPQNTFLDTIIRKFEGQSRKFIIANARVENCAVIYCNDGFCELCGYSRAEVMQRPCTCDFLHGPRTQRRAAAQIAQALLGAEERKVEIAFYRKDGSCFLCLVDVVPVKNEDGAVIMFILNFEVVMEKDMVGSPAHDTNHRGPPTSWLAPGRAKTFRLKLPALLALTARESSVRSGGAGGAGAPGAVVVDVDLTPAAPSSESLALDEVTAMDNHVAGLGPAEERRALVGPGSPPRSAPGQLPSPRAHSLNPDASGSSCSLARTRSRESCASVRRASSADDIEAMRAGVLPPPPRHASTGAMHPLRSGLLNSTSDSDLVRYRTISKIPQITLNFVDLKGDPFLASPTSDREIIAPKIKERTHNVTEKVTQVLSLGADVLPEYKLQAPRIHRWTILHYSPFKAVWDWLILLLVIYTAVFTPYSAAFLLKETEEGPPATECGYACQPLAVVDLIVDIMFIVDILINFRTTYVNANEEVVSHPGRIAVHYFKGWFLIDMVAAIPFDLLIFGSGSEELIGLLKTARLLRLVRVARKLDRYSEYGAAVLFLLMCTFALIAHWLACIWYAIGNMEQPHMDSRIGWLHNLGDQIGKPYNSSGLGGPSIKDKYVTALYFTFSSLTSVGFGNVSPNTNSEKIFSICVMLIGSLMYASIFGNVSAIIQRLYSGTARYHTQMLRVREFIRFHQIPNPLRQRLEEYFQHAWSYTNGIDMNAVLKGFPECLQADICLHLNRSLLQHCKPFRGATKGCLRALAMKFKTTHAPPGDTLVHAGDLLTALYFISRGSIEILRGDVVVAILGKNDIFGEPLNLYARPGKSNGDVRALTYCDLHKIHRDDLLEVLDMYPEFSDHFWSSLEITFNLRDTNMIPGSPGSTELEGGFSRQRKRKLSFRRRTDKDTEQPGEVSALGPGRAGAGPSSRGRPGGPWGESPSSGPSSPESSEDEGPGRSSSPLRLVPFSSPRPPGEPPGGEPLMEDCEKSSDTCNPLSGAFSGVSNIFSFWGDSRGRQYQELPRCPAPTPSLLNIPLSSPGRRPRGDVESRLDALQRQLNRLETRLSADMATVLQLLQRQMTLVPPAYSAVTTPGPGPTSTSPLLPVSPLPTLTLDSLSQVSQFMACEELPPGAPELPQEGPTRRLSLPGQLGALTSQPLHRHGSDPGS

SMILES	hERG current change (%, negative = inhibition) at 1uM
Brc1ccccc1-c1nnc(SCc2nc3ccccc3s2)o1	14.3%
Cc1ccc(CN2CCc3c(OCc4ccc(F)cc4)cccc3C2=O)cc1	13.7%
COc1ccc(-c2cc(C(=O)Nc3c(C)nn(Cc4ccccc4Cl)c3C)no2)cc1OC	5.12%
Cc1nc2nc[nH]n2c(=O)c1CCOC(=O)c1ccccc1F	9.17%
CCN(CC)S(=O)(=O)c1ccc(N2CCOCC2)c(NC(=O)Cc2cccc3ccccc23)c1	12.9%
CC(C)C[C@H]1CN=C(Nc2ccccc2)N1CC1CCCCC1	-9.04%
CCN(C(=O)COC(=O)c1ccc(OC)c(S(=O)(=O)N2CCCc3ccccc32)c1)C1CCS(=O)(=O)C1 (stereo not drawn)	15.6%
CC1CC(C)CN(C(=O)C(C)N2CCN(S(=O)(=O)c3cccs3)CC2)C1 (stereo not drawn)	7.33%
CN(C)CCN=Cc1c(O)n(-c2cccc(C(F)(F)F)c2)c(=O)[nH]c1=O	12%
O=C(CSc1nnc(-c2ccc(OC(F)F)cc2)o1)NC(=O)NCc1ccco1	-7.02%
NC1=NC(c2cccnc2)n2c(nc3ccccc32)N1 (stereo not drawn)	11.3%
O=C1OC(Nc2nc(-c3ccc(F)cc3)cs2)c2ccccc21 (stereo not drawn)	23.7%
CCN1CCN(CCCNC(=O)c2ccc(NC(=O)C3=C(C)OCCS3)cc2)CC1	13.4%
O=C(Cn1ncc2c3ccccc3n(Cc3ccccc3)c2c1=O)NCCCN1CCOCC1	2.54%
CCc1ccc(-c2nc(NC(=S)NC(=O)c3cccs3)sc2C)cc1	9.56%
COc1ccc(C(=O)N2CCCC(Nc3ccc(C(C)C)cc3)C2)c(OC)n1 (stereo not drawn)	0.702%
Cn1ncc(Cl)c1C(=O)NC1CCCC1	18.1%
Cc1ccc(C(=O)C(C)OC(=O)Cc2n[nH]c(=O)c3ccccc23)cc1 (stereo not drawn)	2.02%
O=C(CSc1nnc(-c2ccccc2F)o1)N1CCCC1	11.7%
CCOc1ccc(S(=O)(=O)NCCCN2CCOCC2)c2ccccc12	1.43%
Cc1c(C)c2cc(Cl)c(O)c(CN3CCCC(C)C3)c2oc1=O (stereo not drawn)	17%
COc1ccccc1C(=O)NCCC(=O)NCCC12CC3CC(CC(C3)C1)C2	6.91%

SMILES	hERG current change (%, negative = inhibition) at 1uM
COCc1ccc(CN2CCCC(CO)(Cc3ccccc3C)C2)o1 (stereo not drawn)	12.2%
Cc1ccc(-c2[nH]nc3c2C(c2ccc(OC(=O)N4CCOCC4)cc2)C(C#N)=C(N)O3)cc1 (stereo not drawn)	10.5%
COc1ccccc1-c1ccc(SCc2cccc(C)c2)nn1	8.38%
COc1ccc(S(=O)(=O)NNC(=S)NCCc2ccccc2)c(OC)c1	2.58%
COc1ccc(C(=O)Nc2ccc(NC(=O)Cc3ccccc3)cn2)cc1	12.3%
CCC(=O)c1ccc(OCC(=O)N(C)CC(=O)Nc2cccc(F)c2)cc1	4.85%
CCOC(=O)CN(C)C(=O)CCc1nnc(-c2ccc(-c3ccccc3)cc2)o1	6.45%
O=C(Nc1cc(S(=O)(=O)N2CCCCC2)ccc1N1CCOCC1)c1ccc(C(F)(F)F)cc1	-0.42%
Cc1ccc(NC(=O)C2=C(C(=O)O)CCCC2)cc1F	14.4%
CCCC1=C(C(=O)OCC)C(/C=C/c2ccccc2)n2ncnc2N1 (stereo not drawn)	8.9%
O=C(OCC(=O)N1CCCC1)c1cc(Cl)ccc1Cl	11.9%
O=C(COC(=O)CCc1c[nH]c2ccccc12)NCc1ccc(Cl)cc1	4.52%
Cc1ccc(S(=O)(=O)NC2CCCCCC2)cc1C(N)=O	4.19%
CCOC(=O)Cc1csc(NC(=S)NC(=O)c2cccc([N+](=O)[O-])c2)n1	6.54%
CC(C)c1ccc(NC(=O)[C@@H](C)NC(=O)[C@@H]2Cc3ccccc3CN2)cc1	-5.9%
CCOC(=O)c1cc2sccc2n1CC(=O)c1ccc2c(c1)OCCO2	-3.39%
CC1CN(S(=O)(=O)c2ccc(NC(=O)c3ccco3)cc2)CC(C)O1 (stereo not drawn)	7.8%
Cc1occc1-c1nnc(SCC(=O)NC2CCC(C)CC2)o1 (stereo not drawn)	-5.89%
CCCOc1ccc(C(=O)NC(=S)N2CCN(c3cc4c(cc3F)c(=O)c(C(=O)O)cn4CC)CC2)cc1	17.1%
CC(C)CCNC(=O)CCSCCC(=O)NCCC(C)C	0.306%
CCn1c(C2CCN(S(=O)(=O)c3ccc(OC)cc3)CC2)n[nH]c1=S	-1.17%
CCN(CC)C(=O)Cn1cnc2sc(C)c(S(=O)(=O)N3CCC(C)CC3)c2c1=O	5.28%

SMILES	hERG current change (%, negative = inhibition) at 1uM
CC(C)(C)c1nc(SCC(=O)NC2CCCC2)c2ccccc2n1	11%
Cc1cc(C)nc(NC(N)=NCCc2c[nH]c3ccccc23)n1	17%
Cn1c(C(=O)O)c(CC(=O)N2CCC(Cc3ccccc3)CC2)c2ccccc21	-3.18%
O=C(CN1CCN(C2CCCCC2)CC1)c1c[nH]c2ccccc12	-4.12%
CCN(c1ccccc1)S(=O)(=O)c1ccc(OC)c(NC(=O)CNCCc2ccccc2)c1.O=C(O)C(=O)O	5.89%
COc1ccc(OCc2cccc(C(=O)Nc3cc(C)on3)c2)cc1	-13.7%
COc1ccc(C)cc1S(=O)(=O)N1CCCC(C(=O)NCC2CCCO2)C1 (stereo not drawn)	4.64%
COc1ccccc1CNS(=O)(=O)c1c(C)[nH]c(C)c1C(=O)N1CCCC1	11.9%
COc1ccc(N(CC(=O)Nc2cccc(N(C)S(C)(=O)=O)c2)S(=O)(=O)c2ccccc2)cc1Cl	6.4%
O=C(O)CC1(CC(=O)Nc2ccc3ccccc3c2)CCCCC1	13.2%
CC[C@@H](C)[C@@H](C(=O)N1CCN(C(=O)OC(C)(C)C)CC1)n1cc(CCCCNC(=O)OC(C)(C)C)nn1	2.55%
O=C(Nc1cccc2ccccc12)C12CC3CC(C1)CC(n1cnc([N+](=O)[O-])n1)(C3)C2	-24.5%
NC(=S)NN=C1c2cc(S(=O)(=O)N3CCOCC3)ccc2-c2ccc(S(=O)(=O)N3CCOCC3)cc21	7.25%
CCC(CC)NC(=O)c1cccc([N+](=O)[O-])c1C	0.221%
Cc1ccc(C)c(NCC(O)c2ccccc2)c1 (stereo not drawn)	7.53%
Cn1c(SCC(=O)NCc2ccc3c(c2)OCO3)nnc1-c1cc2ccccc2cc1O	9.97%
CC(NC(=O)CC12CC3CC(CC(C3)C1)C2)C(=O)O (stereo not drawn)	11.1%
Cc1ccc(NC(=O)N2CCCC(C(=O)O)C2)cc1 (stereo not drawn)	11.7%
COc1ccc(C(=O)NNC(=O)COC(=O)c2sccc2C)cc1	0.581%
COc1ccc(CC(=O)N/N=C(\C)c2cccnc2)cc1	-5.17%
Cc1ccc(S(=O)(=O)CCC(=O)OC(C)C(=O)N2CCc3ccccc32)cc1 (stereo not drawn)	7.11%
O=C(NC(=S)Nc1cccc(Cl)c1N1CCCCC1)c1ccc2c(c1)OCCO2	17.3%

SMILES	hERG current change (%, negative = inhibition) at 1uM
CP(=O)(Nc1ccc(Cl)cc1)c1nc2c(s1)CCCC2 (stereo not drawn)	11.6%
O=C(N/N=C(\CC(=O)c1cccs1)C(F)(F)F)c1cccnc1	12.7%
OCC[C@H]1C[C@H](O)[C@@H](O)[C@@]2(CCCO2)O1	17.6%
CCOC(=O)C1=C(C)N(c2ccc(C)cc2)C(=O)/C1=C\c1ccc(O)c(OC)c1	9.25%
O=C1CCC(=O)N1CCOP1(=O)COc2ccccc2OC1	20.3%
Cc1cc(-c2n[nH]c(=S)n2/N=C/C(Br)=C/c2ccccc2)n[nH]1	11.3%
CCSC(=Nc1ccccc1)C1=C(O)COC1=O	15.5%
COc1ccccc1/C=C/C=N/NC(=O)c1ccc2nc[nH]c2c1	6.34%
O=C(CCSc1nnc(-c2ccc(O)cc2)o1)N1CCOCC1	8.46%
Cc1ccc(NC(=O)COC(=O)c2c[nH]c3ccccc23)cc1C	19.9%
O=[N+]([O-])c1ccccc1Nc1ccccc1	9.58%
Cc1ccc(CSc2nnc(-c3cccc(S(=O)(=O)N4CCOCC4)c3)n2C2CCCC2)cc1	0.995%
O=C(O)CCSc1nnc(COc2ccc(Cl)cc2)n1-c1ccccc1	12.8%
CN(C)/C=C/C(=O)c1cnc(-c2ccccn2)s1	9.79%
COc1ccc(-c2nnc(C3CCN(S(=O)(=O)c4ccccc4)CC3)o2)cc1	2.56%
COc1ccc(C2=NS(=O)(=O)N(C)C(C(=O)N3CCN(C)CC3)=C2)cc1	7.21%
O=C(CNC(=O)c1sc2ccccc2c1Cl)NCc1ccc(F)cc1	11.7%
Cc1ccc(NNC(=O)C(O)(c2cccc(C(F)(F)F)c2)c2cccc(C(F)(F)F)c2)cc1	0.287%
CN(C)N=O	25.1%
Cc1cc(C(=O)CSc2nc3ccccc3o2)c(C)n1CC1CCCO1 (stereo not drawn)	-0.54%
COc1ccc2c(c1OC)C(=O)OC2Nc1nc(-c2cc3cc([N+](=O)[O-])ccc3oc2=O)cs1 (stereo not drawn)	21.6%
